The supplement of paper PMC10037445
Over roughly 2,900 compounds, “IRF Lucia reporter activity, fold change vs agonist alone” has its median near 0.9; the highest 2% begin near 2.8. Some of the results follow.

Tests used:
[1] = test system: RAW-Dual; assay: IRF Lucia reporter activity, fold change vs agonist alone; cytotoxicity flag (confluency mask): not cytotoxic; higher = enhanced IRF activity
Summary of the method: (§1)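 Supernatant from RAW-Dual macrophages was read after 20 hours for IRF by QuantiLuc luminescence and for NF-κB by QuantiBlue absorbance at 620 nm. The cells (50,000 cells/well in DMEM, 384-well plates, 37 °C, 5% CO2) had received 50 nL of library stock by pin tool and, 1 h later, a PRR agonist. Reporter activity is expressed relative to agonist-alone wells as fold change, and wells were flagged cytotoxic if IncuCyte confluency was under 70% of agonist controls in both mask sets.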

[2] = test system: RAW-Dual; assay: IRF Lucia reporter activity, fold change vs agonist alone; higher = enhanced IRF activity; settings: agonist: MPLA (TLR4) […]
Summary of the method: as §1

[3] = test system: RAW-Dual; assay: IRF Lucia reporter activity, fold change vs agonist alone; cytotoxicity flag (confluency mask): cytotoxic (confluency <70% of control); higher = enhanced IRF activity
Summary of the method: as §1

[4] = agonist: 3'3'-cGAMP (STING) 10 ug/mL
[5] = library stock concentration (final ~1000-fold dilution): 10 mM, cytotoxicity flag (confluency mask): not cytotoxic
[6] = library stock concentration (final ~1000-fold dilution): 10 mM, cytotoxicity flag (confluency mask): cytotoxic (confluency <70% of control)

## CC(C)C1C(=O)NC(CCCNC(=N)N)C(=O)NCC(=O)NC(CC(=O)O)C(=O)NC(Cc2ccccc2)C(=O)N1C.O=C(O)C(F)(F)F (stereo unspecified) (library stock concentration (final ~1000-fold dilution): 10 mM)
[1]; [4]
  IRF Lucia reporter activity: 1
[1]; agonist: LPS (TLR4) 0.1 ug/mL
  IRF Lucia reporter activity: 1.17

## CC(C)C1C(=O)NC(CCCNC(=N)N)C(=O)NCC(=O)NC(CC(=O)O)C(=O)NC(Cc2ccccc2)C(=O)N1C.O=C(O)C(F)(F)F (stereo unspecified)
[2]; [5]
  IRF Lucia reporter activity: 1.15

## COC1/C=C/OC2(C)Oc3c(C)c(O)c4c(O)c(c(/C=N/N5CCN(C)CC5)c(O)c4c3C2=O)NC(=O)/C(C)=C/C=C/C(C)C(O)C(C)C(O)C(C)C(OC(C)=O)C1C (stereo unspecified) (library stock concentration (final ~1000-fold dilution): 10 mM)
[1]; [4]
  IRF Lucia reporter activity: 1.2
[1]; agonist: LPS (TLR4) 0.1 ug/mL
  IRF Lucia reporter activity: 1.01

## COC1/C=C/OC2(C)Oc3c(C)c(O)c4c(O)c(c(/C=N/N5CCN(C)CC5)c(O)c4c3C2=O)NC(=O)/C(C)=C/C=C/C(C)C(O)C(C)C(O)C(C)C(OC(C)=O)C1C (stereo unspecified)
[2]; [5]
  IRF Lucia reporter activity: 0.809

## COS(=O)(=O)[O-].COc1cccc2c1nc1ccccc1[n+]2C (library stock concentration (final ~1000-fold dilution): 10 mM)
[3]; [4]
  IRF Lucia reporter activity: 0.0356
[3]; agonist: LPS (TLR4) 0.1 ug/mL
  IRF Lucia reporter activity: 0.453

## CCN(CC)CCNc1ccc(C)c2sc3ccccc3c(=O)c12
[2]; [6]
  IRF Lucia reporter activity: 0.978

## CCN(CC)CCNc1ccc(C)c2sc3ccccc3c(=O)c12 (library stock concentration (final ~1000-fold dilution): 10 mM)
[3]; [4]
  IRF Lucia reporter activity: 0.296
[3]; agonist: LPS (TLR4) 0.1 ug/mL
  IRF Lucia reporter activity: 0.936

## O=C(O)c1ccc(/C=C2/SC(=S)N(Cc3cccc(C(F)(F)F)c3)C2=O)cc1 (library stock concentration (final ~1000-fold dilution): 10 mM)
[1]; [4]
  IRF Lucia reporter activity: 1.08
[1]; agonist: LPS (TLR4) 0.1 ug/mL
  IRF Lucia reporter activity: 1.07

## O=C(O)c1ccc(/C=C2/SC(=S)N(Cc3cccc(C(F)(F)F)c3)C2=O)cc1
[2]; [5]
  IRF Lucia reporter activity: 0.994

## Cc1cc(Nc2cc(N3CCN(C)CC3)nc(/C=C/c3ccccc3)n2)n[nH]1.O=C(O)C(O)C(O)C(=O)O (library stock concentration (final ~1000-fold dilution): 10 mM)
[1]; [4]
  IRF Lucia reporter activity: 0.0151
[1]; agonist: LPS (TLR4) 0.1 ug/mL
  IRF Lucia reporter activity: 0.0305

## Cc1cc(Nc2cc(N3CCN(C)CC3)nc(/C=C/c3ccccc3)n2)n[nH]1.O=C(O)C(O)C(O)C(=O)O
[2]; [5]
  IRF Lucia reporter activity: 0.0326

## NC(=O)c1cccc(-c2cc(Nc3ccc(OC(F)(F)F)cc3)ncn2)c1 (library stock concentration (final ~1000-fold dilution): 10 mM)
[1]; [4]
  IRF Lucia reporter activity: 0.725
[1]; agonist: LPS (TLR4) 0.1 ug/mL
  IRF Lucia reporter activity: 0.975

## NC(=O)c1cccc(-c2cc(Nc3ccc(OC(F)(F)F)cc3)ncn2)c1
[2]; [5]
  IRF Lucia reporter activity: 0.969

## Cc1cc(C)c(CNC(=O)c2cc(-c3ccc(CN4CCOCC4)cc3)cc3c2cnn3C2CCCC2)c(=O)[nH]1
[2]; library stock concentration (final ~1000-fold dilution): 2 mM, cytotoxicity flag (confluency mask): not cytotoxic
  IRF Lucia reporter activity: 1.02

## Cc1cc(C)c(CNC(=O)c2cc(-c3ccc(CN4CCOCC4)cc3)cc3c2cnn3C2CCCC2)c(=O)[nH]1 (library stock concentration (final ~1000-fold dilution): 2 mM)
[1]; [4]
  IRF Lucia reporter activity: 0.533
[1]; agonist: LPS (TLR4) 0.1 ug/mL
  IRF Lucia reporter activity: 0.988

## COc1ccc(Oc2cc(NCCC(F)(F)F)c3ncc(-c4ccc(C(=O)NC5CC5)c(C)c4)n3n2)c(F)c1F (library stock concentration (final ~1000-fold dilution): 10 mM)
[1]; [4]
  IRF Lucia reporter activity: 0.255
[1]; agonist: LPS (TLR4) 0.1 ug/mL
  IRF Lucia reporter activity: 1.23

## NCCCC(=O)O
[2]; library stock concentration (final ~1000-fold dilution): 10 mM water, cytotoxicity flag (confluency mask): not cytotoxic
  IRF Lucia reporter activity: 1.06

## NCCCC(=O)O (library stock concentration (final ~1000-fold dilution): 10 mM water)
[1]; [4]
  IRF Lucia reporter activity: 1.12
[1]; agonist: LPS (TLR4) 0.1 ug/mL
  IRF Lucia reporter activity: 0.83

## Cc1ccc(-c2nn(C(C)(C)C)c3ncnc(N)c23)cc1
[2]; [5]
  IRF Lucia reporter activity: 0.665

## Cc1ccc(-c2nn(C(C)(C)C)c3ncnc(N)c23)cc1 (library stock concentration (final ~1000-fold dilution): 10 mM)
[1]; [4]
  IRF Lucia reporter activity: 0.971
[1]; agonist: LPS (TLR4) 0.1 ug/mL
  IRF Lucia reporter activity: 0.583

## CC(C)CC(NP(=O)(O)OC1OC(C)C(O)C(O)C1O)C(=O)NC(Cc1c[nH]c2ccccc12)C(=O)O (stereo unspecified) (library stock concentration (final ~1000-fold dilution): 10 mM)
[1]; [4]
  IRF Lucia reporter activity: 1
[1]; agonist: LPS (TLR4) 0.1 ug/mL
  IRF Lucia reporter activity: 0.927

## CC(C)CC(NP(=O)(O)OC1OC(C)C(O)C(O)C1O)C(=O)NC(Cc1c[nH]c2ccccc12)C(=O)O (stereo unspecified)
[2]; [5]
  IRF Lucia reporter activity: 0.955

## CCC(N)CNc1ccnc(-c2cc(-c3cnn(C)c3)ccc2O)n1.Cl.Cl (stereo unspecified) (library stock concentration (final ~1000-fold dilution): 10 mM)
[3]; [4]
  IRF Lucia reporter activity: 0.0123
[3]; agonist: LPS (TLR4) 0.1 ug/mL
  IRF Lucia reporter activity: 0.0754

## C=CC1CC1(NC(=O)C1CC(Oc2ncc(OC)c3ccc(Cl)cc23)CN1C(=O)C(NC(=O)OC(C)(C)C)C(C)(C)C)C(=O)NS(=O)(=O)C1CC1 (stereo unspecified) (library stock concentration (final ~1000-fold dilution): 10 mM)
[3]; [4]
  IRF Lucia reporter activity: 1.02
[3]; agonist: LPS (TLR4) 0.1 ug/mL
  IRF Lucia reporter activity: 1.04

## C=CC1CC1(NC(=O)C1CC(Oc2ncc(OC)c3ccc(Cl)cc23)CN1C(=O)C(NC(=O)OC(C)(C)C)C(C)(C)C)C(=O)NS(=O)(=O)C1CC1 (stereo unspecified)
[2]; [6]
  IRF Lucia reporter activity: 1.03

## CC(=O)N1CCN(c2ccc(NC(=O)Cc3cnc(-c4ccnc(F)c4)c(C)c3)nc2)CC1 (library stock concentration (final ~1000-fold dilution): 10 mM)
[1]; [4]
  IRF Lucia reporter activity: 1.07
[1]; agonist: LPS (TLR4) 0.1 ug/mL
  IRF Lucia reporter activity: 0.943
